In all, about 110,000 compounds were measured (“z-score”: median about -0.1, highest 2% from about 2 on). This is one part of the list. Activity calls are given as the source filed them.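 The calls were made as follows: active = z-score in the third read window above 3 or below -3; inactive = the rest.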
Biological target: Metabotropic glutamate receptor 8 (Rattus norvegicus) (UniProt P70579)
Assay: mGluR8 Gi/Go-coupled signaling modulation – cell-based, rat, thallium flux, HTS, primary screen (AID 488969)
Conditions: HEK293 rat mGluR8, GIRK (G protein-gated inwardly rectifying potassium channel) thallium flux, FluoZin2; at 10 µM; stronger effect = higher value; submaximal glutamate (EC20) added with thallium

Sequence of UniProt P70579 (P70579 whole entry, looked up): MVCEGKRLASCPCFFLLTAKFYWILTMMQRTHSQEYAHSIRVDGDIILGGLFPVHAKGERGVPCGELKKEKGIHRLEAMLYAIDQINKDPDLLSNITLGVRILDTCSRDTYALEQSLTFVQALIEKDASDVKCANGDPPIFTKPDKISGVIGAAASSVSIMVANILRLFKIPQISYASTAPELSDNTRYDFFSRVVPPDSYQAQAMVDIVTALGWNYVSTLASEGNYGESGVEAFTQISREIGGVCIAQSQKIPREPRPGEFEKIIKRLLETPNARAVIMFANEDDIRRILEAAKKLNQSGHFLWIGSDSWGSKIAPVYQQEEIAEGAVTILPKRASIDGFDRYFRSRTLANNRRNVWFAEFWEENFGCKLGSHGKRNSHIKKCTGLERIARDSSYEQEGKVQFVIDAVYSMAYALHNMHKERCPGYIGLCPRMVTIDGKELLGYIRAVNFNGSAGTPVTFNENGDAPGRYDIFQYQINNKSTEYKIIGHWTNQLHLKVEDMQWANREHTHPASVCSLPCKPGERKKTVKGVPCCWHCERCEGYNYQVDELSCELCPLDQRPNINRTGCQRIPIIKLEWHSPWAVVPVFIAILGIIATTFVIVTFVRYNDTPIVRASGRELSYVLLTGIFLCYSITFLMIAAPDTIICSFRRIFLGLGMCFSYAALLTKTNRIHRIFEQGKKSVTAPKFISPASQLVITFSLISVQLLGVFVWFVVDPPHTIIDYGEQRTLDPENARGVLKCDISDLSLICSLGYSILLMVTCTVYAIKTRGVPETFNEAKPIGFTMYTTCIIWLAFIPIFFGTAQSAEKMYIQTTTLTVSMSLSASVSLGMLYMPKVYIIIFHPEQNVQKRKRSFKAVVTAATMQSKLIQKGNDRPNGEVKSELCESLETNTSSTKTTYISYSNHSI

Compound | z-score
O=C(CSc1nnc(CNc2ccc(F)cc2)n1Cc1ccco1)NC1CC1 | -0.487
CC1CCN(c2ccc([N+](=O)[O-])cn2)CC1 | -0.0341
O=C1CCc2cc(S(=O)(=O)N3CCC(C(=O)NCc4ccccc4Cl)CC3)ccc2N1 | -0.473
CCC(CC)c1nnc(NC(=O)c2ccc3ccccc3n2)s1 | active: 11.4
Cc1cc(/C=N/n2cnnc2)c(C)n1-c1ccccc1 | -0.143
COc1ccccc1Nc1ncnc2c1cnn2-c1cccc(C)c1 | 0.293
CSc1ccc(C(=S)N2CCN(C)CC2)cc1 | -0.0432
CS(=O)(=O)N1CCN(C(=O)Cc2ccccc2)CC1 | 0.248
O=C(O)CC(Cc1ccc(Cl)cc1)C(=O)NCc1ccccc1 (stereo unspecified) | -0.244
O=C(CSc1ncn(-c2ccccc2)n1)Nc1ccc(Br)cn1 | -0.314
COCCNc1c2c(nc3c(-c4ccccc4)c(C)nn13)CCCC2 | -0.65
Cc1ccccc1NC(=O)c1oc(=O)c2ccccc2c1-c1ccccc1 | -0.34
O=C(CCCOc1ccc(Cl)cc1Cl)n1nnc2ccccc21 | -0.0622
COc1ccc(CCNS(=O)(=O)c2ccc3c(c2)n(C)c(=O)c(=O)n3C)cc1OC | 0.539
CC(C)(C)NC(=O)Cn1c(=O)oc2ccc(Cl)cc21 | 0.388
CN(C)S(=O)(=O)c1cccc(NC(=O)COC(=O)CCSc2ccc(Cl)cc2)c1 | 0.722
O=C(O)c1ccc(NC(=O)c2cccs2)cc1 | 0.3
C=CCC(C#Cc1ccccc1)[N+](C)(C)CC=C (stereo unspecified) | -0.273
Cn1cc(SCC(=O)N2CCCc3ccccc32)c2ccccc21 | -0.879
Cc1ccc(-c2c(C#N)c(N)n3c(nc4ccccc43)c2C#N)cc1 | 0.0249
Clc1ccc(-c2nc3cnccn3c2Nc2ccc3c(c2)OCO3)cc1 | -1.02
CCC(CC)NC(=O)C1CCN(S(=O)(=O)c2cccs2)CC1 | 0.208
CCCc1cc(=O)oc2cc(OCC(=O)N3CCc4ccccc43)ccc12 | -0.116
Cc1cc(C)c[n+](-c2[nH]c(=O)sc2/C=N/NC([S-])=Nc2ccccc2)c1 | 0.162

Compound | z-score
O=C(NCc1ccc(Cl)cc1)C1CCCN(S(=O)(=O)c2cnc[nH]2)C1 (stereo unspecified) | 0.5
CCOC(=O)c1[nH]c(C)c(C(=O)NCC2CCCO2)c1C (stereo unspecified) | -0.0349
CCn1cc(C(=O)OCC(=O)NCc2ccc3c(c2)OCO3)c(=O)c2ccc(C)nc21 | -0.834
Cc1ccc(-n2c(C3CC3c3ccc(Cl)cc3)n[nH]c2=S)cc1 (stereo unspecified) | 0.832
CCOC(=O)Nc1ccc2c(c1)N(C(=O)C(C)N1CCCC1)c1ccccc1CC2 (stereo unspecified) | 0.468
Cc1nn(C)cc1/C=C1\SC(=S)NC1=O | 0.236
Cc1ccccc1CS(=O)(=O)Cc1ccc(C(=O)NCCCN2CCOCC2)o1 | -0.276
Cc1occc1-c1nnc(SCC(=O)Nc2ccccc2)n1CCc1ccccc1 | 0.954
CCNC(=S)NCc1ccc(F)cc1 | -0.134
CC(c1ccccc1)N1CCn2c(nc3cc(NC(=O)NC4CCCCC4)ccc32)C1 (stereo unspecified) | -1.17
COc1ccc2ncn(-c3ccccc3)c2c1 | -0.0476
S=C(Nc1ccccc1Oc1ccccc1)Nc1cccc(Cl)c1Cl | active: 4.09
Cc1cc(/C=C2\SC(=S)NC2=O)c(C)n1C | -0.121
Cc1ccc(NC(=S)NNC(=O)c2ccc(N3CCOCC3)c([N+](=O)[O-])c2)cc1C | -0.856
COc1ccc(N2CCN(C(=O)CCCn3c(=S)[nH]c4cc5c(cc4c3=O)OCO5)CC2)cc1 | -0.487
CCc1cc2c(=O)c(-c3nc(C)cs3)coc2cc1OC(C)C(=O)NCCO (stereo unspecified) | -0.25
CCOC(=O)CN(C(=O)CSc1nnc2c(n1)[nH]c1c(C)cc(C)cc12)c1ccccc1 | -0.0593
CCOC(=O)C1CCN(C(=O)c2ccc(Br)o2)CC1 | -0.901
Cc1cccc2cc(CN(CC3CCCO3)C(=O)c3cnccn3)c(=O)[nH]c12 (stereo unspecified) | 0.229
O=C(Cc1ccccc1)NNS(=O)(=O)c1ccc([N+](=O)[O-])cc1 | -0.301
Cc1ccc(N(C)S(=O)(=O)c2ccc(C)cc2)cc1 | -0.435
CNC(=S)N1CCN(c2ccccn2)CC1 | 0.101
N#CCCN/N=C(/Cc1nc2ccccc2[nH]1)c1ccc(Cl)cc1 | 0.0234
O=C(Nn1c(O)c(C=C2N=c3ccccc3=N2)sc1=S)c1ccc(Cl)cc1 | -0.0506

Compound | z-score
CC1CCN(c2cc(N3CCOCC3)c(F)cc2[N+](=O)[O-])CC1 | -0.674
CN(Cc1ccccc1)S(=O)(=O)c1ccc(Cl)nc1 | -0.102
O=C(NCc1ccccc1)c1ccc(-c2ccc(F)cc2)o1 | -0.283
CC(C)C(=O)NC(=S)Nc1ccccc1C(=O)Nc1ccccc1 | 0.292
Cc1cccc(-c2c3c(=O)n(C)c(=O)n(C)c3cn2CCO)c1 | 0.939
O=C(Nc1ccc(Cl)cc1)c1ccncc1 | -0.351
N#Cc1c(-c2ccccc2)ccn(Cc2ccccc2Cl)c1=O | -0.435
O=C(NCC1CCCO1)c1ccc(CS(=O)(=O)c2ccc(Cl)cc2)o1 (stereo unspecified) | 0.0189
Clc1cccc(/C=N/Nc2ncnc3ccccc23)c1 | 0.218
O=C(CS(=O)(=O)c1ccccc1)N1CCCCCC1 | -0.0311
CC1CCN(C(=O)C(NS(=O)(=O)c2cccc3nsnc23)c2ccccc2)CC1 (stereo unspecified) | 0.905
CN(c1ccccc1C(=O)N1CCN(c2cccc(Cl)c2)CC1)S(C)(=O)=O | 1.16
O=c1ccc2cc(S(=O)(=O)N3CCOCC3)ccc2o1 | 0.613
c1ccc(OCc2nc3c4c(ncn3n2)-c2ccccc2CC42CCCC2)cc1 | -0.208
CCOC(=O)Nc1ccc(NC(=O)c2c(OC)cccc2OC)cc1 | -0.203
COC(=O)c1ccc(CSc2nc(-c3ccco3)cc(C(F)(F)F)n2)o1 | -0.121
Cc1ccc(C(=O)c2cc([N+](=O)[O-])ccc2N2CC(C)OC(C)C2)cc1 (stereo unspecified) | -0.215
COc1cc(C2C(C#N)=C(N)N(Nc3ccccc3)C3=C2C(=O)CC(C)(C)C3)ccc1OCc1ccccc1 (stereo unspecified) | -0.0398
CN(Cc1ccccc1)C(=S)NC(=O)c1ccc(-c2ccccc2)cc1 | active: 4.13
Nc1nc(-c2c[nH]c3ccccc23)cs1 | -1.6
CCOC(=O)c1c(C)[nH]c(C(=O)C(C)OC(=O)c2oc3ccccc3c2COC)c1C (stereo unspecified) | -0.347
Cc1nnc(SCC(=O)N2CCc3ccccc3C2)n1-c1ccccc1 | -0.299
COc1ccc(Br)cc1C(=O)Nc1ccccc1-c1ccccc1 | -0.245
